Results as given in PMC4336329 (PLoS ONE, 2015).
The whole screen tested about 310,000 compounds, of which about 2,200 (0.71%) showed an effect of 50% or more. Effects have a minus sign here. This is one part of the list.

biological target: human ether-à-go-go-related gene (hERG) potassium channel (human, UniProt Q12809); test: primary screen, population patch clamp on CHO cells stably expressing hERG
Sequence (Q12809 whole entry, looked up): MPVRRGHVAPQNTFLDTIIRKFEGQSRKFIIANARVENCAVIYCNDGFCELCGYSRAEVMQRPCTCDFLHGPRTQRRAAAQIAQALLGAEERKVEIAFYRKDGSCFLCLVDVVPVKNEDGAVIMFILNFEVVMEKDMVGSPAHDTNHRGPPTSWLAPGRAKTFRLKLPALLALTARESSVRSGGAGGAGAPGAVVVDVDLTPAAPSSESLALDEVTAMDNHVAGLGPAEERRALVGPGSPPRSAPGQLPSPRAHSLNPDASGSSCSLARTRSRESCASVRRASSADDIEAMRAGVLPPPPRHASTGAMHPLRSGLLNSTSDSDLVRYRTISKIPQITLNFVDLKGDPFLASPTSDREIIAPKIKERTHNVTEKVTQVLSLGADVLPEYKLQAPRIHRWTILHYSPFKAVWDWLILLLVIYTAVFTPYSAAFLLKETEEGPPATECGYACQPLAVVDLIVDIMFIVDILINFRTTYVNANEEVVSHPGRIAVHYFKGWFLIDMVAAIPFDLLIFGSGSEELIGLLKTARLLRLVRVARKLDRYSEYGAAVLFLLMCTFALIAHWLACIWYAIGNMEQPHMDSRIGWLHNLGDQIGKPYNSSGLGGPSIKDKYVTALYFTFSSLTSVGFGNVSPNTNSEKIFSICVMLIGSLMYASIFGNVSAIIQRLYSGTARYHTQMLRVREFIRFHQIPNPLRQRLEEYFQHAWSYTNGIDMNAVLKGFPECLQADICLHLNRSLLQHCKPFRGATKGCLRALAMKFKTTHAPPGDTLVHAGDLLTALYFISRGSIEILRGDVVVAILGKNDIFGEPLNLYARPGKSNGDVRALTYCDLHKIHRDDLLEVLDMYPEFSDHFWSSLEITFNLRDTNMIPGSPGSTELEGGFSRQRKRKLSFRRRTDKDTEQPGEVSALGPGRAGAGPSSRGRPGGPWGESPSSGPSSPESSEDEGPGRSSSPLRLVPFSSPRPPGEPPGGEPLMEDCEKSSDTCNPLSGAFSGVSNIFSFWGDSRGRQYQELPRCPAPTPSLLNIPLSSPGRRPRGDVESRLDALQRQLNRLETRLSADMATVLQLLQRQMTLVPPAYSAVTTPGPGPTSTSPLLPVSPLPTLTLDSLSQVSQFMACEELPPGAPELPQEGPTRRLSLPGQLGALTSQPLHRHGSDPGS

Compared with `CN(C)c1ccc(NS(=O)(=O)c2cc3c4c(c2)CC(=O)N4CCC3)cc1`, `Cc1cccc(OCCCC(=O)Nc2ccc(S(=O)(=O)Nc3onc(C)c3C)cc2)c1` is lower in “hERG current change (%, negative = inhibition) at 1uM” value: 16.6% for the first, 13% for the second.

Compared with `COc1ccc(S(=O)(=O)NCCc2csc(C)n2)cc1C`, `CCOc1ccccc1NC(=O)NNS(=O)(=O)c1cc(C)ccc1C` is higher in “hERG current change (%, negative = inhibition) at 1uM” value: 7.79% for the first, 8.69% for the second.

First: COC(=O)C1=C(C(=O)OC)[C@@H]2N(C)c3ccccc3[C@@]23C[C@@H](C(=O)OC)N(C(=O)c2cc(C)oc2C)C3=N1
Second: Cc1ccc(N2CC(C)Cn3c2nc2c3c(=O)n(CC(=O)OCc3ccccc3)c(=O)n2C)cc1C (stereo not drawn)
The “hERG current change (%, negative = inhibition) at 1uM” value of the first is higher: -3.23% for the first, -4.99% for the second.

First: Cc1coc2cc3oc(=O)cc(C)c3cc12
Second: COc1ccc(-c2cc(=O)oc3cc(OC(C)C(=O)NC4CC4)ccc23)cc1 (stereo not drawn)
The “hERG current change (%, negative = inhibition) at 1uM” value of the first is higher: 11.8% for the first, 11.3% for the second.

Going from `O=C(NNC(=O)c1ccco1)c1ccccc1` to `O=C(CS(=O)(=O)c1ccc(C(F)(F)F)cn1)NNC(=O)c1ccccc1`, the “hERG current change (%, negative = inhibition) at 1uM” value rises from 2.43% to 11%.

Compared with `O=C(Nc1cccnc1)C1CC(=O)N(c2ccc(F)cc2)C1` (stereo not drawn), `CSc1ccccc1NC(=O)c1ccc([N+](=O)[O-])cc1` is lower in “hERG current change (%, negative = inhibition) at 1uM” value: 18.8% for the first, 2.08% for the second.

Compared with `O=C1C(=O)N(CCN2CCOCC2)C(c2ccccc2F)/C1=C(\O)c1ccc(S(=O)(=O)N2CCOCC2)cc1` (stereo not drawn), `O=C(Nc1ccccc1O)c1cc(S(=O)(=O)N2CCOCC2)c(Cl)cc1Cl` is lower in “hERG current change (%, negative = inhibition) at 1uM” value: 11.4% for the first, -6.9% for the second.

Going from `CCCCCCSc1ccc([C@H]2N[C@@](C)(C(=O)OC)[C@H]3C(=O)N(C)C(=O)[C@@H]23)cc1.O=C(O)C(F)(F)F` to `CCn1c(SCC(=O)Nc2ccc(C(C)=O)cc2)nnc1C1CC1`, the “hERG current change (%, negative = inhibition) at 1uM” value rises from 3.72% to 11%.

Going from `CC(C)n1c(Oc2ccc(F)cc2)nc2c1c(=O)n(C)c(=O)n2C` to `CN(C)S(=O)(=O)c1cccc(C(=O)OCC(=O)c2c(N)n(C)c(=O)n(C)c2=O)c1`, the “hERG current change (%, negative = inhibition) at 1uM” value rises from -0.311% to 3.79%.

First: O=C(Cn1nnc(-c2ccncc2)n1)N1CCc2ccccc21
Second: CC1CCN(CC(=O)N2CCCc3c2c(=O)oc2ccc(OCc4ccccc4)cc32)CC1
The “hERG current change (%, negative = inhibition) at 1uM” value of the first is higher: 18.3% for the first, 3.63% for the second.

Compared with `OC(CCN1CCCCC1)c1ccc(-c2ccccc2)cc1` (stereo not drawn), `CN1CCN(S(=O)(=O)c2ccc3ccccc3c2)CC1` is higher in “hERG current change (%, negative = inhibition) at 1uM” value: -4% for the first, 9.45% for the second.

Compared with `O=C(COC(=O)COc1ccccc1)Nc1cccc([N+](=O)[O-])c1`, `O=C(NC(=S)Nc1nc(-c2cccc([N+](=O)[O-])c2)cs1)c1ccccc1Cl` is lower in “hERG current change (%, negative = inhibition) at 1uM” value: 12% for the first, 9.48% for the second.

First: Cc1cccc(OCc2nnc(SCC(=O)Nc3cccc(C(=O)N4CCOCC4)c3)o2)c1C
Second: COC(=O)CSc1nnc(-c2ccc(S(=O)(=O)NCc3cccs3)cc2)o1
The “hERG current change (%, negative = inhibition) at 1uM” value of the first is higher: 6.86% for the first, 4.7% for the second.

First: COc1ccc(N(CC(=O)NCc2ccc(F)cc2)S(=O)(=O)c2c(C)noc2C)cc1
Second: CN(C)c1ccc(/C=C2\C(=O)NC(=O)N(CCc3ccc(F)cc3)C2=O)cc1
The “hERG current change (%, negative = inhibition) at 1uM” value of the first is lower: 7.44% for the first, 13.3% for the second.

Compared with `Cc1cccc(-n2ncc(C#N)c2N)c1`, `Cc1cn(S(=O)(=O)c2cc(Br)ccc2Br)cn1` is lower in “hERG current change (%, negative = inhibition) at 1uM” value: 16.8% for the first, 7.35% for the second.

Going from `CCN(CC)C(=O)CSc1nnc2sc3ccccc3n12` to `CCOc1ccccc1NC(=O)CSc1nc2[nH]ncc2c(=O)[nH]1`, the “hERG current change (%, negative = inhibition) at 1uM” value falls from 12.8% to 9.87%.

Compared with `CC(=O)c1cc2c(cc1N(C(=O)c1ccco1)C(C(=O)NC1CCCC1)c1ccccc1F)OCO2` (stereo not drawn), `O=C(NC1CCCCC1)N(CCN1CCCC1)Cc1cc2cc3c(cc2[nH]c1=O)OCCO3` is lower in “hERG current change (%, negative = inhibition) at 1uM” value: 13.2% for the first, 9.89% for the second.

Compared with `Cc1cc(C(=O)NNC(=O)CN2C(=O)NC3(CCCCC3)C2=O)c(C)o1`, `CC1(C)CC(=O)c2c(O)cc(OCC(=O)Nc3ccc(CCO)cc3)cc2O1` is lower in “hERG current change (%, negative = inhibition) at 1uM” value: 12.4% for the first, -8.39% for the second.

Going from `CCOc1ccc2cc(C3CC(c4ccco4)=NN3S(=O)(=O)c3ccccc3)c(Cl)nc2c1` (stereo not drawn) to `CCOc1ccc(OCCCC(=O)Nc2nc3ccccc3[nH]2)cc1`, the “hERG current change (%, negative = inhibition) at 1uM” value rises from 8.7% to 10.6%.

Going from `CC(C)[C@H](NC(=O)c1ccco1)C(=O)NC12CC3CC(CC(C3)C1)C2` to `CC(C)CC(c1nnnn1C(C)C)N1CCN(C(=O)c2ccco2)CC1.Cl` (stereo not drawn), the “hERG current change (%, negative = inhibition) at 1uM” value falls from 4.68% to -4.77%.

Compared with `O=C(CCN1C(=O)C2C3CCC(C3)C2C1=O)Nc1cccc(Cl)c1` (stereo not drawn), `COc1ccc(-c2cccc(C(=O)Nc3ccc(C)cc3)c2)cc1` is higher in “hERG current change (%, negative = inhibition) at 1uM” value: 4.67% for the first, 14.2% for the second.

Compared with `CCCCn1cnc2cc(C)c(C)cc21`, `c1ccc(-c2nnc(-c3ccccc3)c(-c3c[nH]c4ccccc34)n2)cc1` is lower in “hERG current change (%, negative = inhibition) at 1uM” value: 7.49% for the first, 4.58% for the second.

In the case of `O=C(O)C1(S(=O)(=O)CCC(F)=C(F)F)CC1`, the “hERG current change (%, negative = inhibition) at 1uM” value is reported as 12.8%.
